Data published in the GPR68 mutational scans of Howard et al. (2025).
Scores with a large standard error are left out. Not listed are two conditions whose scores span a narrow range. In variant names, del marks residues removed and ins residues inserted between the two positions. For some of these results: The concentration of ogerin is not given here.

B1: GPR68, Q15743 (parent)
chain: MGNITADNSSMSCTIDHTIHQTLAPVVYVTVLVVGFPANCLSLYFGYLQIKARNELGVYLCNLTVADLFYICSLPFWLQYVLQHDNWSHGDLSCQVCGILLYENIYISVGFLCCISVDRYLAVAHPFRFHQFRTLKAAVGVSVVIWAKELLTSIYFLMHEEVIEDENQHRVCFEHYPIQAWQRAINYYRFLVGFLFPICLLLASYQGILRAVRRSHGTQKSRKDQIQRLVLSTVVIFLACFLPYHVLLLVRSVWEASCDFAKGVFNAYHFSLLLTSFNCVADPVLYCFVSETTHRDLARLRGACLAFLTCSRTGRAREAYPLGAPEASGKSGAQGEEPELLTKLHPAFQTPNSPGSGGFPTGRLA

Tests used:
[1] = variants of: B1; assay: cAMP reporter score (Enrich2 score, wild type = 0); higher = more signal; HEK293T, FACS bins
[2] = variants of: B1; assay: surface expression score (Enrich2 score, wild type = 0); higher = more signal; HEK293T, FACS bins

Row | Variant | cAMP reporter score ([1]; pH 5.5) | cAMP reporter score ([1]; pH 6) | cAMP reporter score ([1]; pH 6, modulator: ogerin) | cAMP reporter score ([1]; pH 6.5, modulator: ogerin) | surface expression score [2]
1 | T14_I15insGS | 0.932 | -0.051 | 0.137 | -0.034 | -0.981
2 | T14_I15insGSG | -1.15 | -1.13 | -1.18 | -1.42 | -0.992
3 | T14del | -0.339 | -0.742 | -0.692 | -0.355 | -0.471
4 | I15_D16del | -0.923 | 0.165 | -0.554 | -0.217 | -0.897
5 | I15_D16insGSG | 0.469 | 0.144 | 0.627 | 0.608 | 0.354
6 | D16_H17insG | 0.014 | 2.12 | 0.113 | 1.17 | -0.329
7 | D16del | -1.21 | -0.441 | -1.52 | -1.04 | -0.388
8 | H17_T18del | -1.05 | -1.13 | -2.46 | -1.26 | -0.229
9 | H17_T18insG | -0.249 | -0.499 | -0.547 | -0.495 | 0.36
10 | MGNITADNSSMSCTIDHAIHQTLAPVVYVTVLVVGFPANCLSLYFGYLQIKARNELGVYLCNLTVADLFYICSLPFWLQYVLQHDNWSHGDLSCQVCGILLYENIYISVGFLCCISVDRYLAVAHPFRFHQFRTLKAAVGVSVVIWAKELLTSIYFLMHEEVIEDENQHRVCFEHYPIQAWQRAINYYRFLVGFLFPICLLLASYQGILRAVRRSHGTQKSRKDQIQRLVLSTVVIFLACFLPYHVLLLVRSVWEASCDFAKGVFNAYHFSLLLTSFNCVADPVLYCFVSETTHRDLARLRGACLAFLTCSRTGRAREAYPLGAPEASGKSGAQGEEPELLTKLHPAFQTPNSPGSGGFPTGRLA [T18A] | 0.789 | 0.794 | 0.714 | 1.16 | 0.685
11 | MGNITADNSSMSCTIDHCIHQTLAPVVYVTVLVVGFPANCLSLYFGYLQIKARNELGVYLCNLTVADLFYICSLPFWLQYVLQHDNWSHGDLSCQVCGILLYENIYISVGFLCCISVDRYLAVAHPFRFHQFRTLKAAVGVSVVIWAKELLTSIYFLMHEEVIEDENQHRVCFEHYPIQAWQRAINYYRFLVGFLFPICLLLASYQGILRAVRRSHGTQKSRKDQIQRLVLSTVVIFLACFLPYHVLLLVRSVWEASCDFAKGVFNAYHFSLLLTSFNCVADPVLYCFVSETTHRDLARLRGACLAFLTCSRTGRAREAYPLGAPEASGKSGAQGEEPELLTKLHPAFQTPNSPGSGGFPTGRLA [T18C] | -0.644 | -0.994 | -0.957 | -1.31 | -1.61
12 | MGNITADNSSMSCTIDHEIHQTLAPVVYVTVLVVGFPANCLSLYFGYLQIKARNELGVYLCNLTVADLFYICSLPFWLQYVLQHDNWSHGDLSCQVCGILLYENIYISVGFLCCISVDRYLAVAHPFRFHQFRTLKAAVGVSVVIWAKELLTSIYFLMHEEVIEDENQHRVCFEHYPIQAWQRAINYYRFLVGFLFPICLLLASYQGILRAVRRSHGTQKSRKDQIQRLVLSTVVIFLACFLPYHVLLLVRSVWEASCDFAKGVFNAYHFSLLLTSFNCVADPVLYCFVSETTHRDLARLRGACLAFLTCSRTGRAREAYPLGAPEASGKSGAQGEEPELLTKLHPAFQTPNSPGSGGFPTGRLA [T18E] | -0.404 | – | -0.557 | -1.44 | -2.5
13 | MGNITADNSSMSCTIDHFIHQTLAPVVYVTVLVVGFPANCLSLYFGYLQIKARNELGVYLCNLTVADLFYICSLPFWLQYVLQHDNWSHGDLSCQVCGILLYENIYISVGFLCCISVDRYLAVAHPFRFHQFRTLKAAVGVSVVIWAKELLTSIYFLMHEEVIEDENQHRVCFEHYPIQAWQRAINYYRFLVGFLFPICLLLASYQGILRAVRRSHGTQKSRKDQIQRLVLSTVVIFLACFLPYHVLLLVRSVWEASCDFAKGVFNAYHFSLLLTSFNCVADPVLYCFVSETTHRDLARLRGACLAFLTCSRTGRAREAYPLGAPEASGKSGAQGEEPELLTKLHPAFQTPNSPGSGGFPTGRLA [T18F] | 0.93 | 0.314 | 0.955 | 0.472 | 1.92
